Among all 310,000 compounds or so, about 14,000 (4.5%) showed an effect of 50% or more. The effect is printed as a negative number. The list shows a part of the results.
molecular target: human ether-à-go-go-related gene (hERG) potassium channel (human, UniProt Q12809); experiment: primary screen, population patch clamp on CHO cells stably expressing hERG
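Further: peak tail current of the secondary pulse compared with the same well before compound.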

Sequence of human ether-à-go-go-related gene (hERG) potassium channel (Q12809 whole entry, looked up): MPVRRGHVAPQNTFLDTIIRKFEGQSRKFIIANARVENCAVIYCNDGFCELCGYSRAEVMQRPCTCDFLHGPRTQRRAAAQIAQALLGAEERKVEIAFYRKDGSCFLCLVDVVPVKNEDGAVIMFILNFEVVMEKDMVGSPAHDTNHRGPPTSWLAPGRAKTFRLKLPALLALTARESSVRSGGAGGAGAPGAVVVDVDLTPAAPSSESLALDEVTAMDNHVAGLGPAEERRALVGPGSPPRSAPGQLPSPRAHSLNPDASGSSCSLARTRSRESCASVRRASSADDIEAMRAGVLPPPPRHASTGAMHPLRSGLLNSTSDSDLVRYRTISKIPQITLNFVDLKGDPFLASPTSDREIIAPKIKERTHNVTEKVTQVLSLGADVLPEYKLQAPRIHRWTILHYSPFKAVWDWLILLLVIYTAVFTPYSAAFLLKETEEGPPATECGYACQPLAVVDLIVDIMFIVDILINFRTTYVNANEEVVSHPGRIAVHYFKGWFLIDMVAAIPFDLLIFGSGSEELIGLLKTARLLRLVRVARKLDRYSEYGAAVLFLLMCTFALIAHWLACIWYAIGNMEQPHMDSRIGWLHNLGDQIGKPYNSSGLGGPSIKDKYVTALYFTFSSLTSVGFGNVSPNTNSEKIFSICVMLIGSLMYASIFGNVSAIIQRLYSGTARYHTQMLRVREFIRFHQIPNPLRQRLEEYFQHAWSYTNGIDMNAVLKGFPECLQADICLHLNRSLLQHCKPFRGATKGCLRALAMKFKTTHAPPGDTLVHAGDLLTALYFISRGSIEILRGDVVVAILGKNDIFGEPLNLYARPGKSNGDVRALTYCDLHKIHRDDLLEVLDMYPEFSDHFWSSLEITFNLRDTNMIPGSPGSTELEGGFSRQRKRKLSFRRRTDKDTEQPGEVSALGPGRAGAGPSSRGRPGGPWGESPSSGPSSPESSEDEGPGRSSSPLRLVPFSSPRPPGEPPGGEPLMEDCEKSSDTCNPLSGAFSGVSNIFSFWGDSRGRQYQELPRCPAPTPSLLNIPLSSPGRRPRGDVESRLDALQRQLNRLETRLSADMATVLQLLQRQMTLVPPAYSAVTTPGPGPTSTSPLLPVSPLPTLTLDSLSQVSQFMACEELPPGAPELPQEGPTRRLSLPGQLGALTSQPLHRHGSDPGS

SMILES	hERG current change (%, negative = inhibition) at 10uM [%]
Br.COc1ccc(C(=O)Cn2c(NCCO)nc3ccccc32)cc1OC	1.68
O=C(O)CCCC(=O)Nc1ccc(Sc2ccc([N+](=O)[O-])cc2)cc1	18.8
c1ccc(-c2nc3ccccc3o2)nc1	3.97
Nc1nc(-c2ccco2)nc(N2CCCCC2)n1	-0.365
Cc1ccc(N2C(=O)CC3(CCCC3)CC2=O)cc1	-5.41
COc1ccc(NC(C)=O)cc1NC(=O)CN1CCN(CC(=O)Nc2ccc(Cl)cc2)CC1	-69.8
Cc1ccc(C(=O)COC(=O)c2ccco2)cc1C	11.4
CCCC(=O)Nc1ccccc1N1CCN(C(=O)C(C)C)CC1	11.4
CN(C)S(=O)(=O)N1CCC(Oc2ccc(C(=O)NC3CCOC(C)(C)C3)cc2)CC1 (centres unmarked)	1.41
Cc1nc(NCCOc2ccccc2)sc1C(=O)Nc1ccccc1	-8.96
CC(=O)c1cc2c(cc1NC(=O)Cn1nc(-c3ccc(C)cc3)ccc1=O)OCO2	-1.96
CC(C)[C@H](NC(=O)c1cccc(S(=O)(=O)N2CCOCC2)c1)C(=O)Nc1nccs1	-0.442
CCOc1cc([N+](=O)[O-])cc(/C=C2/NC(=O)N(Cc3ccccc3F)C2=O)c1O	-41.6
CCOC(=O)C(C)Sc1ccc2nnc(CCNS(=O)(=O)c3ccccc3)n2n1 (centres unmarked)	7.34
COc1cc2c(cc1OC)C(c1ccccc1OC(C)C)CC(=O)N2 (centres unmarked)	8.29
c1cncc(-c2nnc3n2N=C(c2cccs2)CS3)c1	-15.8
CC(=O)OCCNc1cc(SCc2ccco2)c2nonc2c1[N+](=O)[O-]	-42.4
Cc1ccc(NC(=O)c2ccc(CN3CC(=O)N4CCCCC4C3=O)cc2)c(C)c1 (centres unmarked)	-2.75
Cc1ccc(NC(=O)Cn2nnc(C(=O)NCc3cccs3)c2N)c(C)c1	16.5
Cc1c(C(=O)NCc2ccccc2CN2CCCC2)oc2c(F)cccc12	-70.5
Cc1ccc(OC(=O)C23CC4CC(CC(C4)C2)C3)c(C)n1	-16.9
O=[N+]([O-])c1cccc(CNc2ccc3c(c2)CCC3)c1	-4.71

SMILES	hERG current change (%, negative = inhibition) at 10uM [%]
O=C1CN(C(=O)c2ccccc2)C(c2ccccc2)c2cc(Cl)ccc2N1 (centres unmarked)	-31
O=C(c1nn2c(C(F)(F)F)cc(-c3cccs3)nc2c1Cl)N1CCCc2ccccc21	16
Oc1[nH]c2ccccc2c1N=NC(=S)N1CCOCC1	7.4
COc1cc(/C=C(\C#N)C(=O)N2CCOCC2)cc(Br)c1O	9.46
Oc1ccc(/C=N/N(c2ccccc2)c2ccccc2)cc1O	11.8
CCCCOc1ccc(OCCCN2CCOCC2)cc1.Cl	-23.1
Cc1cc(C)n(-c2ccc(C(=O)Nc3ccc(C)c(S(=O)(=O)N(C)C)c3)cc2)n1	-13.9
COc1cccc(OC)c1C(=O)NC(=S)N1CCN(c2ccc(C(F)(F)F)cc2[N+](=O)[O-])CC1	-28.7
Cc1ccc(N2C(=O)[C@@H]3C(C(=O)CN4C(=O)c5ccccc5C4=O)=NN[C@@H]3C2=O)c(C)c1	3.93
O=C(NCCCN1CCN(Cc2ccccc2)CC1)C1CCN(S(=O)(=O)N2CCC3(CC2)OCCO3)CC1	1.25
CC(=O)Nc1nc2ccc(C(=O)NCCOC(=O)C3CCCCC3)cc2s1	-14.2
CCN1CCN(c2ccc(S(=O)(=O)N3CCCCC3)cc2NC(=O)c2ccc([N+](=O)[O-])s2)CC1	-80.6
CCc1nnc(NC(=O)Cc2sc(C)nc2-c2ccc(C)cc2)s1	10.8
CN(C)C(CNC(=O)C1CCN(S(=O)(=O)c2cccc(Cl)c2Cl)CC1)c1ccccc1 (centres unmarked)	-34.8
Cc1nc(N2CCN(c3ccccn3)CC2)c2c(C)c(C(=O)Nc3ccc(Cl)cc3)sc2n1	-7.01
Cc1c(NC(=O)C(C)OC(=O)c2c3c(nc4ccccc24)CCC3)c(=O)n(-c2ccccc2)n1C (centres unmarked)	-16.7
c1ccc2c(SCc3cn4cccnc4n3)ncnc2c1	-5.05
CCn1c(SCC(=O)N2CCCc3ccccc32)nnc1-c1ccco1	-5.2
Cc1ccc(S(=O)(=O)N2CCCC(C(=O)Nc3cccnc3)C2)cc1 (centres unmarked)	-22.4
CCOc1ccccc1N1CCN(C(=O)c2c(-c3c(F)cccc3Cl)noc2C)CC1	-8.88
Cc1ccc(S(=O)(=O)NN)c(C)c1N1CCCC1=O	8.62
Cc1ccc(S(=O)(=O)N(CC(=O)NCc2ccco2)Cc2ccc(F)cc2)cc1	-67.1

SMILES	hERG current change (%, negative = inhibition) at 10uM [%]
CCOc1cc(/C=C2/C(=O)ON=C2C)cc(Br)c1O	-4.19
CSCC[C@H](NC(=O)c1cccs1)c1nnc2ccccn12	11.7
O=C(CSc1nc2ccccc2c(=O)n1-c1ccc(Cl)cc1)c1ccco1	7.24
CC(C)CCNC(=O)c1onc(CSc2ccccn2)c1C(=O)NCCC(C)C	-1.57
Cc1ccc(S(=O)(=O)N2CCN(Cc3nc4sc(C)c(C)c4c(=O)[nH]3)CC2)cc1	18.2
Nc1c(C(=O)N2CCCC2)sc2nc3c(cc12)CCCCCC3	-19.5
Cc1onc(-c2c(Cl)cccc2Cl)c1NC(=O)NC1CCSC1 (centres unmarked)	13.6
CCOc1cc(C(=S)N2CCOCC2)ccc1OS(=O)(=O)c1ccc(C)cc1	11
CC(=O)c1ccc(Nc2cc(C)nc3c(C)cccc23)cc1	-36.2
CCOC(=O)c1c(C)n(OCc2ccccc2)c2ccc3nonc3c12	6.14
O=C(NC1CCCCC1)C(c1ccccn1)N(C(=O)c1csnn1)C1CC1 (centres unmarked)	20.3
COc1cccc(OC)c1C(=O)NC(=S)Nc1cccc(NC(=O)c2ccco2)c1	28
CCC12C=CCN3CCC4(c5cc(Br)c(OC)cc5N(C)C4C(O)(C(=O)OC)C1OC(C)=O)C32 (centres unmarked)	-3.35
COc1cc(/C=N/N(CCO)C2=NS(=O)(=O)c3ccccc32)cc(OC)c1OC	15.6
Cc1ccc(Nc2ccc([N+](=O)[O-])cn2)cc1Cl	4.87
CCOC(=O)c1sc(NC(=O)c2ccc(S(=O)(=O)N3CCOCC3)cc2)cc1C	-19.4
O=S(=O)(NC1CCCCC1)c1ccc(N2CCOCC2)nc1	-2.81
COc1ccc(CCNC(=O)c2nnn(CC(=O)Nc3cccc(F)c3)c2N)cc1OC	5.94
Cc1ccc(C(=O)c2sc3nc4c(cc3c2N)CCC4)cc1	6.76
COc1cccc(-n2c(-c3ccoc3)nc3ccccc3c2=O)c1	-11.3
CCOc1ccc(CCNC(=O)CN2C(=O)NC(CCSC)C2=O)cc1OCC (centres unmarked)	11.3
O=C(c1ccco1)N1CCN(S(=O)(=O)c2ccc3c(c2)CCN3C(=O)C2CCC2)CC1	-24.2

SMILES	hERG current change (%, negative = inhibition) at 10uM [%]
CC(C)OCCCNS(=O)(=O)c1ccc2c(c1)OCCO2	10.8
Cc1cccc(C)c1OCC(O)CN1CCN(c2ccccc2)CC1.Cl (centres unmarked)	-53.1
Cc1nc2cc(NCc3cccs3)ccc2n1C	-27.4
CC(=O)N/C(=C\c1ccccc1Cl)C(=O)O	12.6
Cc1nc2cc(-c3cccc(F)c3)nn2c(C)c1CCC(=O)N1CCN(c2ccccn2)CC1	-13.1
COCCn1c(SCC(=O)Nc2cccc(F)c2)nc2c([nH]c3ccccc32)c1=O	17.6
O=C(Nc1ccc(N2CCOCC2)c(Cl)c1)c1ccc(Cl)cc1	-3.56
Cc1ccc(-n2c(-c3ccccc3)cc(/C=N/NC(=O)CC#N)c2-c2ccccc2)cc1	23.4
CCOC(=O)c1c(C)nn(Cc2ccccc2)c1N	3.83
O=c1[nH]c(=S)n(CCC2=CCCCC2)c(O)c1C=NCc1cccnc1	-0.946
CCOc1ccc(NC(=S)N(CCOC)C2CCN(C(C)C)CC2)cc1	-29
Cc1cccc(NC(=O)CN2C(=S)NC(C)(C)CC2C)c1 (centres unmarked)	7.04
CC(=O)c1cc(F)ccc1OCC(=O)N1CCN(c2ccc(F)cc2)CC1	-58.2
CC(=O)Nc1ccc(S(=O)(=O)N2CCC(c3nnc(-c4ccc(C)cc4)o3)CC2)cc1	-51.1
Cc1cc(OCC(=O)N(C)C)c2c(-c3ccccc3)cc(=O)oc2c1	-37.9
COc1ccc2[nH]c3c(=O)n(CCCN4CCOCC4)cnc3c2c1	-3.86
CCCCc1nc(N2CCOCC2)c(C#N)c2c1COC(C)(C)C2	-22.8
COc1ccc(NC(=O)CSc2nc(SC)ns2)c(OC)c1	2.53
O=c1c2ccccc2ncn1Cc1nc2ccccc2s1	-0.504
COc1cc(CNc2ccc(N3CCOCC3)cc2)cc(Br)c1OC	-23.4
